# Assay results reported in publication PMC12460146, “Impact of metabolic enzyme activity variability on dabrafenib disposition” (Frontiers in Pharmacology, 2025).
# Experiments:
# Format in all cases: in vitro ADME, human
# [1] = substrate: CC(C)(C)c1nc(-c2cccc(NS(=O)(=O)c3c(F)cccc3F)c2F)c(-c2ccnc(N)n2)s1; assay: In vitro enzyme kinetics assay using CYP3A4 baculosomes: CYP3A4.1; conditions: other: CYP3A4.1; dabrafenib 5–250 µM
# Procedure: (§1) Recombinant CYP3A4 and CYPb5 proteins were prepared according to our previously established protocol ([Fang et al., 2017]). Briefly, dual expression vectors (pFastBac-Dual) were used to construct CYP3A4-CYPOR and CYPb5-CYPOR expression plasmids. Subsequently, the corresponding baculosomes were harvested by ultracentrifugation using the baculovirus-insect cell expression system, and the target proteins were confirmed. Protein expression levels for each type were qualitatively and quantitatively assessed by Western blotting and BCA assay, respectively.
# (§2) The 200 µL incubation system comprised 0.1 M Tris-HCl, 5 µg CYP3A4.1 or other CYP3A4 variants, 5 µg CYPb5, 1 mM NADPH, and dabrafenib. A dabrafenib concentration of 10 µM was used to evaluate variant specific metabolic activity. Michaelis-Menten kinetics were assessed using dabrafenib concentrations of 5, 10, 20, 50, 100, and 250 µM. Subsequent processing steps followed the procedures outlined in Section 2.3.
# [2] = substrate: CC(C)(C)c1nc(-c2cccc(NS(=O)(=O)c3c(F)cccc3F)c2F)c(-c2ccnc(N)n2)s1; assay: In vitro enzyme kinetics assay using CYP3A4 baculosomes: CYP3A4.8; conditions: other: CYP3A4.8; dabrafenib 5–250 µM
# Procedure: as §1, §2
# [3] = substrate: CC(C)(C)c1nc(-c2cccc(NS(=O)(=O)c3c(F)cccc3F)c2F)c(-c2ccnc(N)n2)s1; assay: In vitro enzyme kinetics assay using CYP3A4 baculosomes: CYP3A4.28; conditions: other: CYP3A4.28; dabrafenib 5–250 µM
# Procedure: as §1, §2
protein,measurement,setting,value
"CYP3A4.1 (Homo sapiens) (protein, made in house; host or cells: insect cells (baculovirus, pFastBac-Dual)) MALIPDLAMETWLLLAVSLVLLYLYGTHSHGLFKKLGIPGPTPLPFLGNILSYHKGFCMFDMECHKKYGKVWGFYDGQQPVLAITDPDMIKTVLVKECYSVFTNRRPFGPVGFMKSAISIAEDEEWKRLRSLLSPTFTSGKLKEMVPIIAQYGDVLVRNLRREAETGKPVTLKDVFGAYSMDVITSTSFGVNIDSLNNPQDPFVENTKKLLRFDFLDPFFLSITVFPFLIPILEVLNICVFPREVTNFLRKSVKRMKESRLEDTQKHRVDFLQLMIDSQNSKETESHKALSDLELVAQSIIFIFAGYETTSSVLSFIMYELATHPDVQQKLQEEIDAVLPNKAPPTYDTVLQMEYLDMVVNETLRLFPIAMRLERVCKKDVEINGMFIPKGVVVMIPSYALHRDPKYWTEPEKFLPERFSKKNKDNIDPYIYTPFGSGPRNCIGMRFALMNMKLALIRVLQNFSFKPCKETQIPLKLSLGGLLQPEKPVVLKVESRDGTVSGA",Km,[1],17.78 ± 1.535 µM
same,Vmax/Km,[1],15 µL/min/mg
"CYP3A4.8 (Homo sapiens; R130Q) (protein, made in house; host or cells: insect cells (baculovirus, pFastBac-Dual)) MALIPDLAMETWLLLAVSLVLLYLYGTHSHGLFKKLGIPGPTPLPFLGNILSYHKGFCMFDMECHKKYGKVWGFYDGQQPVLAITDPDMIKTVLVKECYSVFTNRRPFGPVGFMKSAISIAEDEEWKRLQSLLSPTFTSGKLKEMVPIIAQYGDVLVRNLRREAETGKPVTLKDVFGAYSMDVITSTSFGVNIDSLNNPQDPFVENTKKLLRFDFLDPFFLSITVFPFLIPILEVLNICVFPREVTNFLRKSVKRMKESRLEDTQKHRVDFLQLMIDSQNSKETESHKALSDLELVAQSIIFIFAGYETTSSVLSFIMYELATHPDVQQKLQEEIDAVLPNKAPPTYDTVLQMEYLDMVVNETLRLFPIAMRLERVCKKDVEINGMFIPKGVVVMIPSYALHRDPKYWTEPEKFLPERFSKKNKDNIDPYIYTPFGSGPRNCIGMRFALMNMKLALIRVLQNFSFKPCKETQIPLKLSLGGLLQPEKPVVLKVESRDGTVSGA",Km,[2],47.37 ± 12.486 µM
same,Vmax/Km,[2],5 µL/min/mg
"CYP3A4.28 (Homo sapiens; L22V) (protein, made in house; host or cells: insect cells (baculovirus, pFastBac-Dual)) MALIPDLAMETWLLLAVSLVLVYLYGTHSHGLFKKLGIPGPTPLPFLGNILSYHKGFCMFDMECHKKYGKVWGFYDGQQPVLAITDPDMIKTVLVKECYSVFTNRRPFGPVGFMKSAISIAEDEEWKRLRSLLSPTFTSGKLKEMVPIIAQYGDVLVRNLRREAETGKPVTLKDVFGAYSMDVITSTSFGVNIDSLNNPQDPFVENTKKLLRFDFLDPFFLSITVFPFLIPILEVLNICVFPREVTNFLRKSVKRMKESRLEDTQKHRVDFLQLMIDSQNSKETESHKALSDLELVAQSIIFIFAGYETTSSVLSFIMYELATHPDVQQKLQEEIDAVLPNKAPPTYDTVLQMEYLDMVVNETLRLFPIAMRLERVCKKDVEINGMFIPKGVVVMIPSYALHRDPKYWTEPEKFLPERFSKKNKDNIDPYIYTPFGSGPRNCIGMRFALMNMKLALIRVLQNFSFKPCKETQIPLKLSLGGLLQPEKPVVLKVESRDGTVSGA",Km,[3],19.59 ± 1.624 µM
same,Vmax/Km,[3],19 µL/min/mg
